The other results are listed elsewhere or left out.
tested on: T1, Caupolican (Caup) homeodomain DNA-binding domain; experiment: PBM E-score (8-mer, recovered from the published 9-mer minima) (E-score (dimensionless, -0.5 to 0.5)); Drosophila protein; higher = stronger relative binding preference, active = 0.31 or more
T1 sequence: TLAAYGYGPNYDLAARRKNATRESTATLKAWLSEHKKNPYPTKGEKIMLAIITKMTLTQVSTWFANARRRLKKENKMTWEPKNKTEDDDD
Outline: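 Caup's homeodomain DNA-binding domain (residues 214-303) was produced by in vitro transcription and translation and applied at 100 nM to custom-designed protein binding microarrays. Each value is an enrichment score giving relative binding preference for a short DNA word; higher means stronger. Published 9-mer scores were the minimum of their two constituent 8-mer scores, and the 8-mer values were recovered from those minima. A cutoff of 0.31 marks candidate binding sequences.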

Sequence	PBM E-score
CGTCCTAC	inactive: -0.0617
GCAAGACC	inactive: -0.186
CCTTCGGC	inactive: -0.283
TAGGTTGA	inactive: -0.0203
ATCTGGAG	≥ -0.00757
CCGTGTGC	inactive: -0.107
ATCAATCA	inactive: 0.131
CGGCTGAA	inactive: -0.142
CACATTGG	inactive: -0.026
GCGCTAGC	inactive: -0.191
AACCCTCA	≥ -0.0332
CGGCTTCC	inactive: -0.252
AGCGGCCG	inactive: -0.228
GGCCGACA	inactive: 0.00142
GGACAGCC	inactive: -0.141
CGCAGCCC	inactive: -0.322
GACCTATA	inactive: 0.0614
AGGCTGCA	inactive: -0.0993
ACTGAACT	inactive: -0.00202
AGTGCACT	inactive: 0.0619
GGGAGAAA	inactive: -0.0791
GTGTATTA	inactive: 0.297
CAGGTTGC	inactive: 0.0186
GGCCACCC	inactive: -0.256

Sequence	PBM E-score
CCGGCTAG	inactive: -0.178
CCTATCAC	inactive: 0.0316
GCTTGCAC	inactive: -0.0951
AAACCGGC	inactive: -0.0448
AGGAATAT	inactive: 0.0658
ATTAGGCA	inactive: 0.0459
GGCGCCCC	inactive: -0.294
CGAGACGA	inactive: -0.0756
ATGCCATG	inactive: 0.119
CATCGCGG	inactive: -0.134
AGCGCATC	inactive: -0.0998
TGCTGAAA	inactive: 0.0105
AAATCACT	inactive: 0.0636
ACGCTCCT	≥ -0.0296
CTGTCTCC	inactive: -0.115
TACAGGTA	≥ 0.253
CATTGTGA	inactive: 0.0929
CCTCGGGC	inactive: -0.2
CGCGAGTA	inactive: -0.0393
ACGGAGGA	≥ -0.0286
CCACATTA	inactive: -0.00074
AACGACGG	inactive: 0.0398
CTCACCTC	inactive: -0.164
CCAGGGGC	inactive: -0.256

Sequence	PBM E-score
CTCCCCCA	inactive: -0.233
CCTTGCAG	inactive: -0.13
TAACTCAA	inactive: 0.0974
GCGAACAC	inactive: 0.0889
ATCTGCTG	inactive: -0.00447
ATATGCGA	inactive: 0.0126
GGCCTCAC	inactive: -0.257
AAACTGTG	inactive: 0.0313
GATGACAA	inactive: 0.308
AGGCGCTC	inactive: -0.165
AAAGGCCA	inactive: -0.202
AGCAACGC	inactive: 0.00272
ACATTACA	active: ≥ 0.37
ATACGACA	inactive: 0.279
ATAAGAAT	inactive: 0.0932
AATTAACC	inactive: 0.0386
AAAGCTAT	≥ 0.0808
AATGCACC	inactive: 0.0591
CATAGAGC	inactive: -0.154
CTGGAAGC	inactive: -0.133
CAAGTGAC	inactive: 0.111
CTGAGGTC	inactive: -0.105
CTGGGTTA	inactive: 0.0205
GAGGTTCC	inactive: -0.104

Reference: the supplement of paper PMC3724861
